{"source": "PubChem BioAssay (NCI)", "note": "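Method: 48-hour compound exposure of cells in 96-well plates, five concentrations, linear interpolation of endpoints. The concentration for 50% growth inhibition is given as GI50. TGI: concentration producing complete growth inhibition.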"}
{"tested_on": "NCI-H322M lung", "assay": "growth of human tumour cells (NCI), 48 h", "units": {"GI50": "nM", "TGI": "µM"}}
{"smiles": "O=C(N=Nc1c(O)[nH]c2ccc(Br)cc12)c1ccc2nc(-c3ccccc3)[nH]c2c1", "GI50": 2150, "TGI": 5.7}
{"smiles": "Cc1sc2c(c1C)C(c1ccc(Cl)cc1)=N[C@@H](CC(=O)NCCCCCNC(=O)COc1ccc(C3CCC(=O)NC3=O)cc1)c1nnc(C)n1-2", "note": "(stereo partly drawn)", "GI50": 687, "TGI": "> 100"}
{"smiles": "O=C(CSc1nnc(-c2ccc(-c3nc4ccc(Cl)cc4[nH]3)cc2)o1)Nc1ccc(Br)cc1", "GI50": 3310, "TGI": 16}
{"smiles": "O=C(/C=C/c1ccc(Cl)cc1)c1nc2ccccc2n1Cc1ccc(F)cc1", "GI50": 16600, "TGI": 52.1}
